# Inconclusive means that the source gave no clear call. Such entries were picked first, then a sample of the others. For some of these results: A potency beside an inconclusive call is a rough fit, not a confirmed value. The source made the active and inactive calls. Unless noted, the call rests on the fitted dose curve; in most records, active means well fitted curve in the direction sought with a large enough effect; inconclusive means small, poorly fitted or top-dose-only effect, or another doubt; inactive means no such curve, though single readings can be large; an effect the other way counts as inactive or inconclusive.
# Key:
# [1] = qHTS of pediatric cancer cell lines to identify multiple opportunities for drug repurposing: Primary screen for BT-37 cells (AID 1347094); further: potency means the concentration at half of the fitted maximal effect
# How it was run: (§1)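 Primary screen of approved and investigational compounds on cells in growth media at 37 degrees C, 5% CO2. MIPE set at 11-point and NPC set at 8-point dilutions; viability scored by ATP-based luminescence at 48 hours.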
# Hek293T = assay: Primary qHTS to identify gynecologic anti-cancer compounds using libraries of approved drugs and bioactive compounds (AID 1345084); settings: Gynecologic cancer cell panel viability, ATPlite luminescence, 48 h, control line for the selectivity index; series mostly up to 57.5 µM; further: nearly all actives have a fitted effect of over 55% in size; further: potency means the concentration at half of the fitted maximal effect
# How it was run: (§2)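 Luminescence from the ATPlite ATP-monitoring reagent indicates viable cell number; lower signal means cytotoxicity. Cells received compound 16 h after seeding and were exposed for 48 h across five concentrations.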
# [2] = biological target: Phospholipid hydroperoxide glutathione peroxidase GPX4 (Homo sapiens) (UniProt P36969); assay: Primary qHTS Assay for Inhibitors of Recombinant Selenoprotein Glutathione Peroxidase 4 (GPX4) (AID 1845192); further: potency means the concentration at half of the fitted maximal effect; nearly all actives have a fitted effect of over 65% in size
# Chain of UniProt P36969 (P36969 whole entry, looked up): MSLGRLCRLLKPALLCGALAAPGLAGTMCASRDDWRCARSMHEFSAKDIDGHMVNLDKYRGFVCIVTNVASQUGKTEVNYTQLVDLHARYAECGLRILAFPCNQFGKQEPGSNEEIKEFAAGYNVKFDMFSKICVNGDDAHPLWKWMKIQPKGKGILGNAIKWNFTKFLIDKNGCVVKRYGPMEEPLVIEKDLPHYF
# How it was run: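 GR-coupled assay: recombinant GPX4 preincubated 30 min with compound at room temperature; final 200 nM GPX4, 1 mM GSH, 0.5 mM cumene hydroperoxide, 0.5 mM NADPH, 100 nM GR, 0.01% BSA, pH 7.5 Tris. NADPH fluorescence (340/450 nm) read at 0 and 15 min.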
# [3] = Primary fluorescence-based thiol-reactive (MSTI) qHTS assay for identification of artifact compounds. (AID 1845221);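 further: thiol-reactive compounds lower the probe fluorescence signal; nearly all actives have a fitted effect of over 65% in size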
# How it was run: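 Compounds were incubated 1 h at room temperature in the dark with the MSTI probe (4 uM) in PBS pH 7.4, 2% DMSO. Signals were normalized between Acetyl-MSTI and MSTI.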
# [4] = qHTS of pediatric cancer cell lines to identify multiple opportunities for drug repurposing: Primary screen for A673 cells (AID 1347092); settings: A673 Ewing sarcoma viability, CellTiter-Glo ATP luminescence, 48 h; series mostly up to 46 µM; further: nearly all actives have a fitted effect of over 45% in size; further: potency means the concentration at half of the fitted maximal effect
# How it was run: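 48 h compound exposure, A673, 500-1,000 cells/well, 37 degrees C/5% CO2. MIPE: 11-point, 0.78 nM-46 µM; NPC: 8-point, 0.59 nM-46 µM (final). Readout CellTiter-Glo luminescence after 15 min RT.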
# CAOV3 = assay: Primary qHTS to identify gynecologic anti-cancer compounds using libraries of approved drugs and bioactive compounds (AID 1345084); settings: Gynecologic cancer cell panel viability, ATPlite luminescence, 48 h; series mostly up to 57.5 µM; further: nearly all actives have a fitted effect of over 55% in size; further: potency means the concentration at half of the fitted maximal effect
# How it was run: as §2
# [5] = qHTS of pediatric cancer cell lines to identify multiple opportunities for drug repurposing: Primary screen for NB1643 cells (AID 1347099); further: nearly all actives have a fitted effect of over 50% in size
# How it was run: as §1
# [6] = qHTS of pediatric cancer cell lines to identify multiple opportunities for drug repurposing: Primary screen for Rh41 cells (AID 1347108);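 further: luminescence drop marks cytotoxic hits; nearly all actives have a fitted effect of over 70% in size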
# How it was run: as §1
# CP297 = assay: qHTS profiling for inhibitors of Plasmodium falciparum proliferation (AID 504749); further: potency means the concentration at half of the fitted maximal effect; nearly all actives have a fitted effect of over 60% in size; settings: P. falciparum in erythrocytes, SYBR Green DNA, 72 h; series mostly up to 28.7 µM
# How it was run: (§3)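 Readout was DNA-dye fluorescence from lysed cultures, ex 485/em 535 nm. Parasitized red cells had grown 72 h with compound; data scaled between 0.29 uM artemisinin and DMSO wells and corrected using vehicle-only plates.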
# DIV17 = assay: as above; settings: P. falciparum in erythrocytes, SYBR Green DNA, 72 h; series mostly up to 28.7 µM
# How it was run: as §3
# P93_24 = assay: as above; settings: P. falciparum in erythrocytes, SYBR Green DNA, 72 h; series mostly up to 28.7 µM
# How it was run: as §3
# PA-1 = assay: Primary qHTS to identify gynecologic anti-cancer compounds using libraries of approved drugs and bioactive compounds (AID 1345084); settings: Gynecologic cancer cell panel viability, ATPlite luminescence, 48 h; series mostly up to 57.5 µM; further: nearly all actives have a fitted effect of over 55% in size; further: potency means the concentration at half of the fitted maximal effect
# How it was run: as §2
# [7] = biological target: Cytochrome P450 2D6 (Homo sapiens) (UniProt P10635); assay: Cytochrome P450 family 2 subfamily D member 6 (CYP2D6) small molecule antagonists: luciferase biochemical (cell-free) qHTS assay (AID 1645840; active means well fitted curve in the direction sought with a large enough effect in the repeat runs; inconclusive means weak or mixed curves; inactive means no such curve, though single readings can be large; an effect the other way counts as inactive or inconclusive; further: potency means the concentration at half of the fitted maximal effect; nearly all actives have a fitted effect of over 55% in size)
# Chain of UniProt P10635 (P10635 whole entry, looked up): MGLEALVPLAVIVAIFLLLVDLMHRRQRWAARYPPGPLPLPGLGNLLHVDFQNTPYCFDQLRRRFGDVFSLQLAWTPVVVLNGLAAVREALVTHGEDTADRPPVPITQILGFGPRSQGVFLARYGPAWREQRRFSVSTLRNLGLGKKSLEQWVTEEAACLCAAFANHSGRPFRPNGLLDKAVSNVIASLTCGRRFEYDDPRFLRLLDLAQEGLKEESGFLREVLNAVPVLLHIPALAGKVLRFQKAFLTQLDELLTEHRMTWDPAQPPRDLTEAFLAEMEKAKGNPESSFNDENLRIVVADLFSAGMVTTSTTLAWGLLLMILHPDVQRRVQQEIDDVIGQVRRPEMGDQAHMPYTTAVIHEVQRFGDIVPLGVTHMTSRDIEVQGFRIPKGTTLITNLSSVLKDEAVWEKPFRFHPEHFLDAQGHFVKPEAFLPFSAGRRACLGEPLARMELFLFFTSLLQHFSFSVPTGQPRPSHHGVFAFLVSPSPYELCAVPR
# How it was run: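 P450-Glo luminescent screen: recombinant CYP2D6 enzyme–proluciferin substrate mix preincubated with compound 10 min at room temperature, then NADPH regeneration added for 1 h at room temperature. Detection reagent added for 20 min; luciferin light read as relative luminescence units.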
# [8] = biological target: Cytochrome P450 2C9 (Homo sapiens) (UniProt P11712); assay: Cytochrome P450 family 2 subfamily C member 9 (CYP2C9) small molecule antagonists: luciferase biochemical (cell-free) qHTS assay (AID 1645842; active means well fitted curve in the direction sought with a large enough effect in the repeat runs; inconclusive means weak or mixed curves; inactive means no such curve, though single readings can be large; an effect the other way counts as inactive or inconclusive)
# Chain of UniProt P11712 (P11712 whole entry, looked up): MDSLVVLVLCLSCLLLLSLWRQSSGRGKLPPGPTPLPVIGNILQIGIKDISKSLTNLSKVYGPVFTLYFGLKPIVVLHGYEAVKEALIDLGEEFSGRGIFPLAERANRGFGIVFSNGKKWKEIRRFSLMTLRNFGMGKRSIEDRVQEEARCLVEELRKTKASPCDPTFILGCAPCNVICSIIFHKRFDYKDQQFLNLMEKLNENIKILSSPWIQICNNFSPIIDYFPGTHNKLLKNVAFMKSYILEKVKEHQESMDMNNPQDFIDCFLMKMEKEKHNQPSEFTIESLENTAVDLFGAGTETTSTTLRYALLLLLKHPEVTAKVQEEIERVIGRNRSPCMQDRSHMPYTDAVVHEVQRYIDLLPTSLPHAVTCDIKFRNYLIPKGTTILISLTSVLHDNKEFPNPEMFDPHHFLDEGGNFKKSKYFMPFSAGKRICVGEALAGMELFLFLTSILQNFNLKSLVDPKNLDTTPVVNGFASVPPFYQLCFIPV
# How it was run: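 Luminescence, after 20 min with luciferin detection reagent, reflected CYP2C9 turnover during a 1 h NADPH-driven reaction at 37C. Enzyme-substrate mix contained 0.4% bovine serum albumin and was preincubated with compound 10 min at room temperature.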
# Tags describe the fitted curve by direction and shape.
smiles,measurement,setting,value
c1ccc(C(O[C@H]2CCCN(CCc3ccc4c(c3)OCO4)C2)c2ccccc2)cc1,Potency,[1],"inconclusive: 21.9 µM [cytotoxic, partial curve, poor fit]"
same,Potency,Hek293T,inactive
N#Cc1ccc(N2N=C3c4ccc(C(=O)O)cc4CC[C@@H]3[C@@H]2C2CCCC2)cc1Cl,Potency,[2],"inconclusive: 32.1 µM [inhibitor, single point]"
same,Potency,[3],inactive
COc1cc2nc(Cl)nc(N)c2cc1OC,Potency,[4],"inconclusive: 26.6 µM [cytotoxic, single point]"
same,Potency,CAOV3,"inconclusive: 5.62 µM [cytotoxic, single point]"
Cc1cccc(C)c1OCC(C)N (stereo unspecified),Potency,[4],inactive
same,Potency,[5],inactive
same,Potency,[6],inactive
same,Potency,CP297,"inconclusive: 8.49 µM [inhibitor, partial curve, poor fit]"
same,Potency,DIV17,"inconclusive: 15.1 µM [inhibitor, partial curve]"
same,Potency,P93_24,"inconclusive: 6.31 µM [inhibitor, partial curve, poor fit]"
same,Potency,PA-1,inactive
CNC(=O)c1cc(Oc2ccc(NC(=O)c3cccc(C(F)(F)F)c3)cc2)ccn1,Potency,[7],"inconclusive: 37.9 µM [inhibitor, partial curve, poor fit]"
same,Potency,[8],"inconclusive: 37.9 µM [inhibitor, single point]"
same,Potency,PA-1,"inconclusive: 0.316 µM [rising, partial curve, poor fit]"

# From PubChem BioAssay (NCATS)
